Test results published in the RNAGym collection of RNA variant scans (doi:10.1093/nar/gkz1192).
Read counts are not given, so values of variants with three or more changes are uncertain.

B1: CPEB3 Ribozyme (parent)
chain: UAACAGGGGGCCACAGCAGAAGCGUUCACGUCGCAGCCCCUGUCAGAUUCUGGUGAAUCUGCGAAUUCUGCUGUAUAUCUC

Variants of: B1
Assay: self-cleavage, relative activity (ratio to wild type); higher = more cleavage; in vitro, sequencing
In short: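 After error-prone PCR and barcoding, CPEB3 ribozyme mutant libraries were transcribed with T7 RNA polymerase at 37°C for 5 hours, then given 15 min with DNase I before an EDTA stop, and they cleaved during both steps. Reverse transcription with template switching preceded Illumina sequencing. Relative activity divides a variant's cleaved/total read fraction by the unmutated ribozyme's. At least 5 reads were required per variant, and three batches were averaged.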

Row | Variant | self-cleavage
1 | C27G U41C A57G | 0.12
2 | U26C U48A A56G A77C | 0.24
3 | C27U U41A U78C | 0.08
4 | A28G C38A U69C U78C | 0.14
5 | U26C A28G U41G A64U U76C A77U | 0.15
6 | U26C A35C A47G | 0.47
7 | U26C U31C U69A | 0.3
8 | C27U U31C U43A | 0.18
9 | U26C U41C A57U | 0.22
10 | U26C G42U A47G A56G U72C U76G | 0.04
11 | U26C U49C A57G U72A | 0.43
12 | U26C A57G U72C | 0.31
13 | U26G U51C U67C | 0.13
14 | U26A U66C A77G | 0.16
15 | U26C U41A A45C U48C | 0.2
16 | U26C U31C G73A | 0.66
17 | U26C A35G U78C | 1.16
18 | U26C A57G U80C | 0.2
19 | U26C U48A U60C | 0.36
20 | C27U U54A U72C U74C | 0.12
21 | U26C G33A U67C A77U U78C | 0.1
22 | U26C U49C U74C | 0.23
23 | A28G C32A A64G U66C | 0.17
24 | U26C U60C U74A | 0.55

Row | Variant | self-cleavage
25 | U26C U51C A57G | 0.25
26 | U26C A35U U51C U66C U72A | 0.04
27 | A28G A45U U72C | 0.22
28 | U26A U31A A45G | 0.32
29 | A28G A47G U67A | 0.16
30 | A28G A35G U69C | 0.51
31 | A28G A45G G52C A75U | 0.36
32 | U26C U31A A47U U54C U72C U76A | 0.1
33 | A28G A47U U60A U69C U78C | 0.11
34 | U26C C34A U69A | 0.16
35 | U26A U49C U76C | 0.22
36 | A28G A56G C59A U60C | 0.07
37 | U26C A28G U31C U54C U58C U76C U80C | 0.17
38 | A28G A45G A56G A65G A75U C81A | 0.06
39 | A28G A64G U76C | 0.51
40 | U26C C29U U49A | 0.37
41 | U26A U54A U60A A65U U67C | 0.36
42 | U26C A64C U80C | 0.63
43 | U26C A28G U31C | 0.22
44 | C27A C37U U66C G70A | 0.05
45 | U26C U31C U54C A57G | 0.12
46 | C27A A28G U41A U69C | 0.1
47 | U26A U43C U54A U72G | 0.31
48 | U26C U54C A64U C79A | 0.15

Row | Variant | self-cleavage
49 | U26C A28G A45G A77U | 0.07
50 | U26A U49C U54G A56G | 0.64
51 | U26C U41C U48C G63U U69C | 0.14
52 | U26C G61A U72C U78A | 0.15
53 | U26C C27A U67C | 0.17
54 | A28G A45U U76C | 0.43
55 | U26C U31G U66C U80G | 0.1
56 | A28G A47G U58C A65G | 0.13
57 | A28G C38U U69C A77G U78C | 0.37
58 | U26A U49C U66C | 0.11
59 | U26C U43G A57C U60A A64U U80C | 0.13
60 | U26C A45U U48G U72C | 0.15
61 | A28G A56U U78C | 0.14
62 | U26G U31A A65G | 0.23
63 | U26A U49C U54G A65G | 0.07
64 | U26C C39U C40A A64G U69A | 0.08
65 | U26C A57G U60C U69C | 0.15
66 | U26A U43A G70C | 0.11
67 | U26C A45C A65G | 0.24
68 | U26C U48C U80A | 0.34
69 | U26C G53C U60C U76A | 0.28
70 | C27A C38U U69C | 0.12
71 | U26C U51G U69C U80C | 0.13
72 | U26C U43C C71U A75G | 0.26

Row | Variant | self-cleavage
73 | U26C A28G U41C U67C | 0.37
74 | A28G A35G A45U U51C | 0.31
75 | A28G A64G U72G U80C | 0.43
76 | U26A U49C A64U | 0.16
77 | A28G C38U A56G U69C C81A | 0.19
78 | C27U A35U C40U | 0.24
79 | U26C U54C A57G | 0.21
80 | U26A U31A U80A | 0.6
81 | U26C A47G A57G U69C | 0.12
82 | C27U A35U U54A U78C | 0.13
83 | C27G C38G A75G U80C | 0.05
84 | U26C U69C U76C | 0.45
85 | U26A U41C G42A A45U | 0.41
86 | A28G C38U U43A A56G U76G A77G | 0.06
87 | A28G C29U U58A U78A | 0.11
88 | U26C U41A U66C | 0.22
89 | U26C U49G U58A | 0.34
90 | A28C U31G U72A | 0.09
91 | U26C A28U U54C A77G | 0.17
92 | U26C U31C U78C | 0.43
93 | C27A C32U U51A U60C U67C U69A | 0.05
94 | U26C U43C U48C U58C U60A | 0.17
95 | A28C U41A U80C | 0.51
96 | U26A U43A A45G A64G C68A U80C | 0.52

Row | Variant | self-cleavage
97 | A28G A35G C38U U72C | 1.18
98 | C27A A35U U69A | 0.45
99 | U26C U54C A64G | 0.28
100 | U26A U31A U66C | 0.08
101 | A28G A35G G52A | 1.28
102 | C27G U49C A64G | 0.13
103 | C27A C29A A56G A65G | 0.35
104 | A28G A47C U51C U66C U72A | 0.25
105 | U26A U69A U76C | 0.58
106 | U26C A35U A57U U74C | 0.21
107 | C27U U51A A57G C59U U69C U72A U78G | 0.08
108 | U26C U31G U49A U72C U78C | 0.26
109 | A28G C34U U78C | 0.23
110 | U26C U31C U41C | 0.54
111 | A28G C32U A64G | 0.19
112 | U26C U31C A77G | 0.32
113 | U26C U31A G73A | 0.48
114 | U26A U51C A77G | 0.94
115 | U26C U31C U54C | 0.4
116 | U26C A47U U60C U69C G70A C79U | 0.16
117 | A28G A45G A57G | 0.25
118 | U26G A35U A56G | 0.13
119 | U26C U31C U43A A45G U54A U69A U78C | 0.04
120 | U26C U54C G55U U78C C79U | 0.47

Row | Variant | self-cleavage
121 | U26C U48C U58C U69C | 0.15
122 | U26C A35G U69A | 0.61
123 | U26C U54C U66C | 0.4
124 | U26C A28G A35G | 0.54
125 | A28C C34G U43C | 0.19
126 | U26C U41A A57U | 0.14
127 | C27G U72A A75G | 0.11
128 | C27U G42C A64G U66C | 0.16
129 | U26C A35G A56U U67C | 0.43
130 | A28G A57U U60C A64U | 0.11
131 | U26C U74A A75G | 0.76
132 | U26C U31C C50A U58C | 0.09
133 | A28C C50U U60A | 0.13
134 | A28G A35G U41A U43G | 0.2
135 | U26C A28U U54C C71U | 0.09
136 | U26A U43C U69C U72G | 0.16
137 | A28C U72A U78A | 0.51
138 | A28C C29U U43C U51A U66C | 0.09
139 | U26A U43C U48C U58A U60A U72G | 0.1
140 | U26A U41C U51G U69A U80A | 0.39
141 | U26C U60A A65U | 0.14
142 | U26C G36C U49C G63U U69A U72A U80A | 0.03
143 | C27U U51C U66C | 0.11
144 | A28C U48C A56U | 0.44

Row | Variant | self-cleavage
145 | C27A G46C U48C U49A A64G | 0.16
146 | U26C U51A U76G | 0.24
147 | U26C U41G C50A A56G | 0.1
148 | A28G A56U U58A | 0.19
149 | U26G U51A A64G | 0.13
150 | C27U U31A A56U U67C A77U | 0.06
151 | U26C U51G A65G U67C | 0.19
152 | U26C U48C U60C A64G | 0.18
153 | U26C C29U A56U U76C | 0.12
154 | U26C U31C U41C A77U U78C | 0.27
155 | U26C C38U A64U | 0.22
156 | C27U G70U U78C | 0.13
157 | U26C A35U C37U | 0.29
158 | A28G A57G U80C | 0.32
159 | U26C A28G C29G U48C | 0.18
160 | U26C C40U A56U | 0.11
161 | A28G A64U A65C | 0.14
162 | U26C C29U U72A | 0.21
163 | U26G A47C U78A | 0.25
164 | U26C A35G U43C | 1.25
165 | A28G A45C A47G A64U U67C | 0.1
166 | U26C A57G U78C | 0.5
167 | U26C U43C C62G | 0.21
